{"source": "PubChem BioAssay AID1768", "about": "(National Center for Advancing Translational Sciences (NCATS), 2009)", "note": "About 620 (0.23%) of roughly 270,000 compounds were called active. The inconclusive results got no clear call from the source; some entries with a clear call stand among them for comparison. The call rests on the fitted dose curve; in most records, active means well fitted inhibition curve with a large enough effect in the polarisation, with a control signal flat (not every such curve was filed as active); inconclusive means small, poorly fitted or top-dose-only effect, or effect the other way, or a change in a side signal; inactive means no such curve, though single readings can be large or run the other way; the % refers to the polarisation. Potencies beside an inconclusive call are fits to weak or partial responses and may not hold up. “Side channel” marks fits to a control or component signal instead of the main read-out. Potency means the concentration at half of the fitted maximal effect; tags describe the fitted curve by direction and shape or compound fluorescence and quenching.", "data": [{"molecular_target": "Menin (Homo sapiens) (UniProt O00255)", "sequence (O00255 whole entry, looked up)": "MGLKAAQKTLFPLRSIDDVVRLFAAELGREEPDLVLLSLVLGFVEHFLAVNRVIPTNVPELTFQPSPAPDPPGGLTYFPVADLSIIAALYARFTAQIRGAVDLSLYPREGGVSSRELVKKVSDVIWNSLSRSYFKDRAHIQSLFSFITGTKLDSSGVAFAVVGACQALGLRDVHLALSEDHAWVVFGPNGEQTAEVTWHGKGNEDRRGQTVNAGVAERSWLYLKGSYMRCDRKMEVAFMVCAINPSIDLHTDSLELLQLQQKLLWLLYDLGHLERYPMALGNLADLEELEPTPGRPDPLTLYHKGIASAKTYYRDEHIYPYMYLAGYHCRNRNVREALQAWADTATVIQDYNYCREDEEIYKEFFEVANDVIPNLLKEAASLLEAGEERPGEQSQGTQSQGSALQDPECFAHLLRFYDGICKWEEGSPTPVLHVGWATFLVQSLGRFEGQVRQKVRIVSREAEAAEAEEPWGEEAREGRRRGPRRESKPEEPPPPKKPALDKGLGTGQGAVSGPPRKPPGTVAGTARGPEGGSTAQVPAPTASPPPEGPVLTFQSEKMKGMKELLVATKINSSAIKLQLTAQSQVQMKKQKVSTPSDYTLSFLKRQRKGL", "assay": "qHTS Assay for Inhibitors Targeting the Menin-MLL Interaction in MLL Related Leukemias: Competition With Texas Red Labeled MLL-derived Mutant Peptide; on FP activity change, negative = inhibition: % of control where 0% means no effect", "conditions": "fluorescence polarization; FP activity change, negative = inhibition: at 61.6 µM (top of the series)", "values": [{"smiles": "C#CCOCCOCCOCCNc1nc(N2CCN(C(=O)[C@H](Cc3cc4ccccc4[nH]3)n3cc([C@@H](N)C(C)CC)nn3)CC2)nc(N2CCN(C(=O)[C@H](CCCCN)n3cc([C@@H](N)CO)nn3)CC2)n1", "note": "(some centres undefined)", "Potency": "inconclusive: 5.01 µM [fluorescent, side channel, full curve]"}, {"smiles": "CCCCNC(=O)c1cccnc1SCC(=O)Nc1ccccc1OC", "Potency": "inconclusive: 8.91 µM [inhibitor, single point]"}, {"smiles": "COC(=O)/C=C\\c1cc(O)ccc1O", "Potency": "inactive"}, {"smiles": "O=C(CSc1nc2ccc([N+](=O)[O-])cc2[nH]1)c1ccc(Cl)cc1", "Potency": "inconclusive: 39.8 µM [quencher, side channel, single point]"}, {"smiles": "CC1=CC(C)(C)N=C(Nc2nc(C)c3cc(C)cc(C)c3n2)N1", "Potency": "inconclusive: 11.2 µM [fluorescent, side channel, partial curve]"}, {"smiles": "COc1ccc(NC(=O)Nc2ccccc2F)c([N+](=O)[O-])c1", "Potency": "inconclusive: 22.4 µM [quencher, side channel, single point]"}, {"smiles": "C[C@@H]1/C=C\\CC(=O)OC[C@H](C)C(=O)N[C@@H](Cc2ccccc2)C(=O)OC1", "FP activity change, negative = inhibition": "inactive: 7.63% [at 11.7 µM]"}, {"smiles": "COc1ccc2c(c1)C(C)CC(C)(C)N2C(=O)CSc1nc2ccccc2s1", "note": "(centres undefined)", "Potency": "inconclusive: 7.94 µM [inhibitor, partial curve]"}, {"smiles": "COc1ccc(/C=N/NC(=O)c2ccc(Cn3cc([N+](=O)[O-])cn3)o2)c(OC)c1C", "Potency": "inconclusive: 12.6 µM [inhibitor, partial curve, poor fit]"}, {"smiles": "CO[C@@H]1COC(=O)[C@H]2CCCN2C(=O)[C@@H](C)COC(=O)CCC[C@H]1C", "FP activity change, negative = inhibition": "inactive: -16.1% [at 11.7 µM]"}, {"smiles": "CCCCCc1c(C)nc(N2CCN(Cc3ccc4c(c3)OCO4)CC2)[nH]c1=O", "Potency": "inconclusive: 10 µM [inhibitor, partial curve]"}, {"smiles": "O=C(/C=C/c1ccco1)Nc1ccc(Oc2ccccc2)cc1", "Potency": "inconclusive: 31.6 µM [quencher, side channel, partial curve]"}, {"smiles": "CCC(CCC(C)C1CCC2C3CC=C4CC(OC(C)=O)CC[C@@]4(C)C3CC[C@@]12C)C(C)C", "note": "(some centres undefined)", "Potency": "inactive"}, {"smiles": "O=C(/C=C/c1ccc(F)cc1)NCc1ccco1", "Potency": "inconclusive: 12.6 µM [quencher, side channel, partial curve]"}, {"smiles": "COc1ccc(N(Cc2ccc(N(C)C)cc2)C(=O)c2ccc(S(C)(=O)=O)cc2)cc1", "Potency": "inconclusive: 25.1 µM [inhibitor, partial curve]"}, {"smiles": "COc1cccc(/C=C2\\Oc3cc(OCC(=O)N4CCC[C@H]4C(=O)O)ccc3C2=O)c1", "Potency": "inconclusive: 20 µM [quencher, side channel, single point]"}, {"smiles": "CC(C)NC1=C(Cl)C(=O)c2ccccc2C1=O", "Potency": "inconclusive: 25.1 µM [quencher, side channel, single point]"}, {"smiles": "COc1cc2c(cc1OC)-c1cc(=Nc3c(C)cc(C)cc3C)n(C)c(=O)n1CC2", "Potency": "inconclusive: 3.16 µM [fluorescent, side channel, full curve, poor fit]"}, {"smiles": "O=C(N/N=C\\c1ccc(-c2ccc([N+](=O)[O-])cc2)o1)c1ccc2c(c1)OCO2", "Potency": "inconclusive: 12.6 µM [quencher, side channel, partial curve]"}, {"smiles": "C[C@@H]1O[C@H]2C3=C(C(=O)[C@H]4O[C@@H]4[C@H]3O)[C@@H]1[C@@H]1[C@@H](C)OC=C3[C@H](O)[C@H]4O[C@@H]4/C(=N\\OCc4ccccc4)[C@]312", "FP activity change, negative = inhibition": "inactive: -17.8% [at 11.7 µM]"}, {"smiles": "CC(C)C1=Nc2cccc3cccc(c23)N1", "Potency": "inactive"}, {"smiles": "CC1Cc2ccccc2N1CC(=O)NC(=O)NC1CCCCC1", "note": "(centres undefined)", "Potency": "inconclusive: 39.8 µM [fluorescent, side channel, single point]"}, {"smiles": "COC(=O)C1=C(C(=O)OC)[C@@H]2N(C)c3ccc(OC)cc3[C@@]23C[C@@H](C(=O)OC)N(S(=O)(=O)c2cccs2)C3=N1", "FP activity change, negative = inhibition": "inactive: -4.42% [at 11.7 µM]"}, {"smiles": "Cn1c(=O)c2c(nc(SCC(=O)NCc3ccc4c(c3)OCO4)n2Cc2ccc(Cl)cc2)n(C)c1=O", "Potency": "inconclusive: 14.1 µM [quencher, side channel, partial curve]"}, {"smiles": "O=C(Nc1ccccn1)c1sc2cc([N+](=O)[O-])ccc2c1Cl", "Potency": "inconclusive: 39.8 µM [quencher, side channel, single point]"}, {"smiles": "CCCCn1c(/C=N/Nc2nc3ccccc3[nH]2)nc2ccccc21", "Potency": "inconclusive: 3.55 µM [quencher, side channel, partial curve]"}, {"smiles": "CCCCn1c(=O)[nH]c(=O)c2c1nc(-c1ccccc1F)n2Cc1ccccc1", "Potency": "inconclusive: 7.08 µM [fluorescent, side channel, partial curve]"}, {"smiles": "Cc1cc(C)nc(N2CCN(c3ccc(F)cc3)CC2)n1", "Potency": "inconclusive: 25.1 µM [inhibitor, single point]"}, {"smiles": "O=C(O)c1cnn(-c2nc(-c3ccc(Br)cc3)cs2)c1C(F)(F)F", "Potency": "inconclusive: 22.4 µM [quencher, side channel, single point]"}, {"smiles": "CCCCn1c(C)cc2c(c1=O)C1O[C@](c3ccsc3)(Cc3ccccc31)O2", "Potency": "inconclusive: 3.16 µM [quencher, side channel, partial curve]"}, {"smiles": "CC1(O)CC(c2ccc(Cl)cc2)=NN1C(=O)c1ccc(Cl)cc1", "note": "(centres undefined)", "Potency": "inconclusive: 12.6 µM [quencher, side channel, partial curve]"}, {"smiles": "COc1cccc(C(=O)O/N=C(\\N)c2ccc([N+](=O)[O-])cc2)c1OC", "Potency": "inconclusive: 25.1 µM [quencher, side channel, single point]"}, {"smiles": "O=C(COc1nc2ccccc2nc1N1CCOCC1)N1CCc2ccccc21", "Potency": "inconclusive: 28.2 µM [fluorescent, side channel, single point]"}, {"smiles": "CC(C)(C)Nc1c(-c2ccc(O)cc2)nc2ccc(Cl)cn12", "Potency": "inconclusive: 3.55 µM [fluorescent, side channel, partial curve]"}]}]}
